From PubChem BioAssay AID1159554 (Broad Institute, 2015)
Among all 94,000 compounds or so, about 2,100 (2.2%) were called active. The shares of active, inactive and inconclusive entries below differ from those in the screen. No stated cut-off is given here; in the data, active means activity change below about -80%; inconclusive means no clear call, values can overlap the other calls; inactive means above that. More than one record can exist for a structure, and the calls need not agree.

Experiment: P. falciparum Dd2 growth inhibitors, primary screen, SYBR Green fluorescence, single dose replicates (AID 1159554)
Details: 72 h, at 10 µM, stronger effect = lower value

Structure (SMILES)	activity change
Cc1noc(C)c1S(=O)(=O)N(C)C[C@@H]1OCCCC[C@H](C)Oc2ccc(NC(=O)C3CCCCC3)cc2C(=O)N([C@@H](C)CO)C[C@H]1C	active: -82.8%
C[C@@H]1CN([C@H](C)CO)C(=O)Cc2cc(NS(=O)(=O)c3ccc(Cl)cc3)ccc2O[C@@H]1CN(C)C(=O)Nc1ccc2c(c1)OCO2	inactive: 17.2%
CO[C@@H]1CN(C)C(=O)c2ccc(NC(=O)C3CCC3)cc2OC[C@@H](C)N(CC2CCCCC2)C[C@H]1C	active: -82.6%
COCC(=O)N1CC2(C1)CN(Cc1cccc(OC)c1)[C@@H](CO)c1[nH]c3cc(OC)ccc3c12	inconclusive: -82.7%
C[C@H]1CN([C@@H](C)CO)C(=O)c2cccc(NC(=O)Nc3ccc(F)cc3)c2O[C@H]1CN(C)C	inactive: 15%
C[C@@H]1CN([C@@H](C)CO)S(=O)(=O)c2ccc(-c3ccncc3)cc2O[C@H]1CN(C)Cc1ccccn1	inactive: -42.8%
COCC#Cc1ccc([C@H]2[C@H](CO)N3C(=O)CN(C(=O)CN4CCOCC4)C[C@@H]23)cc1	active: -85.3%
C[C@@H]1CCCCO[C@@H](CN(C)C(=O)Nc2ccccc2)[C@@H](C)CN([C@@H](C)CO)C(=O)c2cc(NC(=O)Nc3ccc(C(F)(F)F)cc3)ccc2O1	inconclusive: -80.7%
CCC(=O)N1CC[C@@H]2[C@H]1c1cc(C#Cc3ccccc3F)ccc1N[C@@H]2CO	inactive: -26.3%
C[C@@H]1CN([C@H](C)CO)C(=O)c2ccccc2-c2ccccc2CO[C@H]1CN(C)C(=O)Nc1ccnc(N2CCOCC2)c1	inactive: 6.55%
C[C@H]1CN([C@@H](C)CO)S(=O)(=O)c2ccc(-c3ccc(F)cc3)cc2O[C@@H]1CN(C)C(=O)Nc1ccccc1F	inconclusive: -80.2%
CCc1nc(N2[C@H](C#N)[C@H](c3ccccc3-c3ccccc3C)[C@H]2CO)sc1C	inactive: -23.3%
C[C@@H]1CN([C@H](C)CO)C(=O)Cc2cc(NS(=O)(=O)c3ccccc3)ccc2O[C@@H]1CN(C)Cc1ccc(C(=O)Nc2ccccc2N)cc1	inconclusive: -80.8%
COc1ccc(S(=O)(=O)N(C)C[C@H]2OCCCC[C@H](C)Oc3ccc(NC(=O)C4CCCCC4)cc3C(=O)N([C@@H](C)CO)C[C@H]2C)cc1	inconclusive: -81%
Cc1cccc(-c2ccc([C@@H]3[C@@H](CO)N4CCCCN(S(=O)(=O)c5cn(C)cn5)C[C@H]34)cc2)c1	inactive: 8.29%
Cc1ccc(S(=O)(=O)Nc2cccc3c2O[C@H](CN(C)Cc2ccc(C(=O)Nc4ccccc4N)cc2)[C@H](C)CN([C@H](C)CO)C3=O)cc1	active: -85.1%
C[C@H](CO)N1C[C@H](C)[C@@H](CN(C)Cc2ccc(Oc3ccccc3)cc2)Oc2ccc(NC(=O)Nc3ccc(C(F)(F)F)cc3)cc2CC1=O	inconclusive: -83.2%
C[C@H]1CCCCO[C@@H](CN(C)S(=O)(=O)c2ccccc2)[C@@H](C)CN([C@@H](C)CO)C(=O)c2cc(NC(=O)Nc3ccc(C(F)(F)F)cc3)ccc2O1	active: -82.7%
Cc1cc(C(=O)Nc2cccc3c2O[C@@H](CN(C)S(=O)(=O)c2ccc(F)cc2)[C@H](C)CN([C@@H](C)CO)C3=O)n(C)n1	inactive: 23.2%

Structure (SMILES)	activity change
COc1ccc2c3c(n(C)c2c1)[C@H](CO)N(C(=O)Nc1ccc(F)cc1)CC31CCN(C)CC1	inconclusive: -81.9%
C[C@H](CO)N1C[C@H](C)[C@H](CN(C)S(=O)(=O)c2cccc(F)c2)OCc2ccccc2-c2c(n(C)c3ccccc23)C1=O	active: -90.9%
CCCN(C)C[C@@H]1Oc2ncc(C#Cc3ccc(OC)cc3)cc2C(=O)N([C@@H](C)CO)C[C@@H]1C	inconclusive: -80.5%
COc1ccc(NC(=O)N(C)C[C@H]2Oc3c(NC(=O)NC(C)C)cccc3C(=O)N([C@@H](C)CO)C[C@H]2C)cc1	active: -84.2%
C[C@@H]1CN([C@@H](C)CO)C(=O)c2cc(C#CC3CCCCC3)cnc2O[C@H]1CN(C)C	inactive: -36.8%
COc1cccc(CN(C)C[C@@H]2OCc3ccccc3-c3c(n(C)c4ccccc34)C(=O)N([C@H](C)CO)C[C@H]2C)c1	inconclusive: -80.3%
CCCNC(=O)N1[C@H](C#N)[C@H](c2ccc(C3=CCCCC3)cc2)[C@H]1CO	inconclusive: -80.3%
COc1ccc2c3c([nH]c2c1)[C@H](CO)N(Cc1ccccc1F)CC31CN(S(C)(=O)=O)C1	inconclusive: -81.7%
C[C@H](CO)N1C[C@H](C)[C@@H](CN(C)C(=O)Nc2ccc(C(F)(F)F)cc2)Oc2ccc(NC(=O)CCN3CCOCC3)cc2CC1=O	inactive: 4.21%
COc1ccc(-c2ccc([C@H]3[C@@H](C#N)N(C(=O)NC4CCCC4)[C@@H]3CO)cc2)cc1	inconclusive: -82.1%
C[C@@H]1CN([C@H](C)CO)C(=O)c2cc(NC(=O)Nc3ccccc3)ccc2O[C@@H](C)CCCCO[C@@H]1CN(C)Cc1ccc(C(F)(F)F)cc1	active: -84.7%
C[C@@H]1CN([C@@H](C)CO)C(=O)c2cccc(NC(=O)C3CCCCC3)c2O[C@@H]1CN(C)Cc1ccc(C(=O)Nc2ccccc2N)cc1	active: -84.7%
COc1ccc(-c2ccc([C@H]3[C@@H](CO)N4CCCCN(C(=O)NC(C)C)C[C@@H]34)cc2)cc1	inactive: 18.4%
CC(C)NC(=O)Nc1ccc2c(c1)C(=O)N([C@H](C)CO)C[C@H](C)[C@H](CN(C)Cc1ccc(C(=O)Nc3ccccc3N)cc1)OCCCC[C@@H](C)O2	inconclusive: -80%
COc1ccc2c3c(n(C)c2c1)[C@H](CO)N(C(=O)Nc1ccc(F)cc1)CC31CCN(C(=O)NC2CCCC2)CC1	inconclusive: -81.1%
C[C@@H]1CN([C@H](C)CO)S(=O)(=O)c2ccc(-c3ccccc3F)cc2O[C@H]1CN(C)C	inactive: -6.54%
COc1ccc2c3c(n(C)c2c1)[C@@H](CO)N(C(=O)c1ccccc1)CC31CN(CC2CC2)C1	inconclusive: -83.6%
COc1ccc2c3c(n(C)c2c1)[C@@H](CO)N(Cc1ccccc1)CC31CCN(CC2CC2)CC1	inactive: -77.9%
COc1ccc(C#Cc2ccc([C@H]3[C@H](CO)N4CCCCN(C(=O)Nc5ccccc5F)C[C@@H]34)cc2)cc1	inactive: -75.4%

Structure (SMILES)	activity change
COCC(=O)N1CCCCN2[C@H](CO)[C@H](c3ccc(-c4ccc(OC)cc4)cc3)[C@@H]2C1	inactive: 13.5%
C[C@H](CO)N1C[C@H](C)[C@@H](CN(C)Cc2ccc(-c3ccccc3)cc2)Oc2ccc(NC(=O)Nc3ccc(C(F)(F)F)cc3)cc2C1=O	active: -85.2%
CC=Cc1ccc2n(c1=O)C[C@H]1[C@H](CO)[C@@H](C(=O)NC3CCC3)[C@@H]2N1Cc1ccccc1 (mixture of isomers)	inactive: 4.72%
C[C@@H]1CCCCO[C@H](CN(C)Cc2ccc(C(=O)Nc3ccccc3N)cc2)[C@@H](C)CN([C@H](C)CO)C(=O)c2cc(NS(=O)(=O)c3ccc(F)cc3)ccc2O1	inconclusive: -81.8%
C[C@@H]1CN([C@H](C)CO)C(=O)c2cc(NC(=O)CCC(F)(F)F)ccc2O[C@@H](C)CCCCO[C@@H]1CN(C)S(=O)(=O)c1ccc(Cl)cc1	inconclusive: -80.6%
CC(C)NC(=O)Nc1ccc2c(c1)C(=O)N([C@@H](C)CO)C[C@H](C)[C@H](CN(C)C)O2	inactive: 6.92%
COc1cccc(-c2ccc([C@H]3[C@@H](CO)N(C(=O)Cc4ccccc4)[C@H]3C#N)cc2)c1	inactive: -72.5%
C[C@H](CO)N1C[C@H](C)[C@H](CN(C)Cc2ccc3c(c2)OCO3)Oc2cc(C#CCN(C)C)ccc2S1(=O)=O	inconclusive: -80.5%
C[C@@H]1CN([C@@H](C)CO)C(=O)c2cc(/C=C/c3ccccc3)cnc2O[C@H]1CN(C)C(=O)NC1CCCCC1	inconclusive: -80.3%
CN1[C@H](C(=O)NC2Cc3ccccc3C2)[C@@H](CO)[C@@H]2Cn3c(ccc(-c4cccnc4)c3=O)[C@@H]21	inactive: 5.4%
C[C@@H]1CCCCO[C@H](CN(C)Cc2ccc3c(c2)OCO3)[C@H](C)CN([C@H](C)CO)C(=O)c2cc(NC(=O)Nc3ccc(C(F)(F)F)cc3)ccc2O1	inconclusive: -80.6%
O=C(Nc1ccccc1F)N1CCCCN2[C@H](CO)[C@H](c3ccc(C#Cc4cccnc4)cc3)[C@@H]2C1	inconclusive: -80.7%
Cc1ccc(-c2ccc(C3[C@@H]4CN(Cc5cccnc5)C[C@H]3N4)cc2)cc1 (some centres not stated)	active: -90.9%
OC[C@H]1Nc2ccc(-c3cccc(F)c3)cc2[C@@H]2[C@H]1CCN2Cc1ccc(F)cc1	active: -89.6%
O=C(Nc1ccc(F)cc1)Nc1ccc2c(c1)[C@H]1C[C@@H](CC(=O)N3CCCCC3)O[C@H](CO)[C@H]1O2	inactive: -63.3%
COc1ccc2c3c(n(C)c2c1)[C@H](CO)N(Cc1ccncc1)CC31CCN(C(=O)C2CC2)CC1	inconclusive: -82.7%
CS(=O)(=O)N1[C@H](C#N)[C@@H](c2ccc(C#CC3CCCCC3)cc2)[C@H]1CO	inactive: -4.77%
C[C@@H]1CCCCO[C@H](CN(C)C(=O)Nc2ccccc2)[C@H](C)CN([C@H](C)CO)C(=O)c2cc(NC(=O)Nc3ccccc3)ccc2O1	active: -88.7%
C[C@@H]1CN([C@@H](C)CO)C(=O)c2cc(NC(=O)C3CCCCC3)ccc2O[C@@H](C)CCCCO[C@@H]1CN(C)C(=O)Nc1ccc(C(F)(F)F)cc1	inconclusive: -82.4%
